Measured values from PMC12136788.
Some of the results follow.

T1: UNK ZnF1-3 (human, UniProt Q9C0B0 31-174)
T1 sequence: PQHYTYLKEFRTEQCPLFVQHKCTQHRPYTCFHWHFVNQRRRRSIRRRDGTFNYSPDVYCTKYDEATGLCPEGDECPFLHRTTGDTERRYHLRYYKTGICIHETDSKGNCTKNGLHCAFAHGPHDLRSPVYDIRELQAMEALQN

B1: chr1:163117127:163117128:-_ENSG00000143248_ENST00000313961|hu_mus|hu_hu_hu_mus_False|68_98 (ssRNA)
RNA: GGGAGUUCUACAGUCCGACGAUCUGCUACAAAGGAUGGAGGAAAUAUCACAGGGCAACUUUUGGAAGCCUGGCUAAAUGACUACUUGAUUAGCUCCUUAUAAAAUUCAGAGCGCACAAAGCGGGGCAGAGAAUCCUUCUCCAUCAACAGAGGAUUGAGCAUCA
B2: chr2:9728443:9728444:-_ENSG00000134308_ENST00000238081|hu_mus|motif|central (ssRNA)
RNA: GGGAGUUCUACAGUCCGACGAUCCUGCAUCUCCUUCUUGCUUAUAUCAAACGCCUCUUGGUAGGCUCCUUGGGAAUUUUCGGUUGUUUGUUUUCGAUCAUCGCCACAAGCUACUUCAGCAAGAUACCGGAAAUAAUCUCCCUUCAACAGAGGAUUGAGCAUCA
B3: chr16:94664741:94664742:+_ENSMUSG00000040785_ENSMUST00000117648|mus_hu|mus_mus_mus_hu_False|8_8 (ssRNA)
RNA: GGGAGUUCUACAGUCCGACGAUCUGGUACUGAUCUUGGUAGCUGAUAUUCAGGAGAAAGGCUGGCCAAGGGUGUAUAUAUGCUGGUGUACUGGGGCAAACCUGGUAACACGUUUAUGUAUGCUGGCCGCUGGGUGAUGAUAUCCAACAGAGGAUUGAGCAUCA
B4: chr5:36862001:36862002:-_ENSMUSG00000029192_ENSMUST00000171385|mus_mus|FALSE|FALSE (ssRNA)
RNA: GGGAGUUCUACAGUCCGACGAUCAAUGGCCAAGCUCCAAACUUUGCCUCUUACACUCGGAGGGAUUCCCUGCCACCACAAGUCUCGAACCUUCUUAGAGCACCACAUGGUUUCCCAGUUAGGCAAGAUCUCAUUGUUCCAGGUCAACAGAGGAUUGAGCAUCA
B5: chr1:220276048:220276049:+_ENSG00000067704_ENST00000302637|hu_hu|hu_hu_hu_mus_True|18_98 (ssRNA)
RNA: GGGAGUUCUACAGUCCGACGAUCGCAAAUUGCCUGGUUGGCUGGAAUUGUCCAAGGCUGGGUGGUCCAAACUAAAACGCUAACAGGGGAUGAGGCAUCUGUAAGAGACUCCAACUUUGGAGAAGGCCUCAGGAGGGGGAAUCUCAACAGAGGAUUGAGCAUCA
B6: chr7:138035701:138035702:+_ENSMUSG00000040268_ENSMUST00000120441|mus_hu|FALSE|FALSE (ssRNA)
RNA: GGGAGUUCUACAGUCCGACGAUCUCCUGCAUUCAUAACAAAACAGAACUCCGCCUUUGGCCUUAGCUUAGUAGCAUCGCUAACCUUUGAAAUGUAGGUAAGCUUAAUGGCUCCAACACGUGAUGAUCCAGAAGGUAGGUUCUGCAACAGAGGAUUGAGCAUCA
B7: chr14:78183846:78183847:+_ENSG00000119705_ENST00000557342|hu_hu|FALSE|FALSE (ssRNA)
RNA: GGGAGUUCUACAGUCCGACGAUCGCAGUCUCAAAAAUCUUUCUUUUCAUCAUCAGAUGUUUGCGGAAGUUUUGGCCUUCUAGUGUGAACCUGGACCUUUACUCCAUCUAUAAUAUGAUUUUCCUGUUGUAGUGCAUUCCGAAGCAACAGAGGAUUGAGCAUCA
B8: 112505324_112505444_1859_3pUTR_ENSMUSG00000032727_ENSMUST00000109272|mouse|control|control (ssRNA)
RNA: GGGAGUUCUACAGUCCGACGAUCGGUUCAAACUUCCAGUGAAAGACUAUGCAAACCUGAUAGCUCCCCUUCAGUUUACUGGUACUGCAUACCCAUUGUCUCUGGGCUUCCCGUUCCCAUCACUCUGAAUGAAGGGCGGCGUGCCAACAGAGGAUUGAGCAUCA
B9: chr7:7679991:7679992:-_ENSG00000106399_ENST00000396682|hu_hu|hu_hu_hu_mus_False|38_48 (ssRNA)
RNA: GGGAGUUCUACAGUCCGACGAUCUGGGAUGAAUCUUUUCCAGCUUCCCCACGAAGCACACGGGCCGGUCGAUAUACUGUGGUAACAUGCCGGCGUUGAUGCGCGACUUGGGGAGCUGCAUUAUGUCCUCCAUGAUUCUGCCGCCAACAGAGGAUUGAGCAUCA
B10: chr3:176767854:176767855:-_ENSG00000177565_ENST00000430069|hu_hu|hu_hu_hu_mus_False|38_48 (ssRNA)
RNA: GGGAGUUCUACAGUCCGACGAUCGACAUCCUUGUUACUGGGCACGUCCUGCCCUCCUUCCCGUAUGCAGUGUCUAAGCACGAGCUGUGUAGAGCCACUGGUGCUGUUCUCACUGAGGUUCCAGAUUCUUGCCGUGGAGUCUCCCAACAGAGGAUUGAGCAUCA
B11: 99436588_99436708_523_CDS_ENSMUSG00000032468_ENSMUST00000035043|mouse|control|control (ssRNA)
RNA: GGGAGUUCUACAGUCCGACGAUCUAAGGCAGGGAUAAUAUGGCAGUCUAGUAGAGACUUGACAUUGUUUUCUGUGCCCAUCGCAAGACUCCCUAACACCACUGCACAUUCAGUUUUCAGCUCUGUACUUGAGGUUUCUUGUUGCAACAGAGGAUUGAGCAUCA
B12: chr12:39763582:39763583:-_ENSG00000139116_ENST00000544797|hu_mus|hu_hu_hu_mus_False|1_48 (ssRNA)
RNA: GGGAGUUCUACAGUCCGACGAUCCUCUAGGAACUGGGCAUUCACUUUGAAUUCAGGAGGGGGCAGCCCGUUUUUAAUCGCUGAGGUUUUUUUUUCUUCAAUACUCUUGAACAGGUGUCUAACAGCACGAGAGAUGAUACCCAGCAACAGAGGAUUGAGCAUCA
B13: chr3:32586495:32586496:-_ENSG00000144635_ENST00000273130|hu_mus|FALSE|FALSE (ssRNA)
RNA: GGGAGUUCUACAGUCCGACGAUCUUUCUGUAAGGAAUCCAAAGCAGUCCAAGGCUUUGACAUAUCAACAACCAACAUGACCAGAGUGUCCCUCAGAGAAAGGGCAUCCAGAGAGAACUUGAGUAGCCCUUUGUGGUACAGAUCCAACAGAGGAUUGAGCAUCA
B14: chr7:75932113:75932114:+_ENSG00000106211_ENST00000248553|hu_hu|hu_hu_hu_mus_False|48_98 (ssRNA)
RNA: GGGAGUUCUACAGUCCGACGAUCCUGCGACCACUCAUCCGGCAGCCGGGGCACCCCGAAAGCUUGAUCGAAGAGGCGGCUGUGUGCGUACCAGUCGUCCCGGAAUGGUUCCCAGCUCGGGCUCCGCAGCAGCGAGAAGGGCACCAACAGAGGAUUGAGCAUCA

What follows are binders tested against T1, UNK ZnF1-3 (assay: nsRBNS (natural sequence RNA bind-n-seq); RBNS binding buffer (assumed for nsRBNS): 25 mM Tris pH 7.5, 150 mM KCl, 3 mM MgCl2, 0.01% Triton X-100, 500 ug/ml BSA, 20 U/ml SUPERase-In, 4 C; UNK is unkempt and MSI1 is Musashi-1; names of the RNAs are library labels; protein concentration not given here; high values mean tight binding).

Binder | binding signal [enrichment R]
B1 | 1.58
B2 | 0.873
B3 | 1.01
B4 | 1.2
B5 | 1.73
B6 | 0.773
B7 | 0.659
B8 | 0.671
B9 | 0.406
B10 | 0.523
B11 | 0.656
B12 | 1.69
B13 | 0.996
B14 | 0.968
